Experimental data from publication PMC4820838.
“And” between values parts separate entries of the source, which are not always exact repeats. Identical values can stand only once. Each block holds one substance with its values, some of them ahead of it.

Tests used:
[1] = target: STAT3-GFP (UniProt P40763); assay: Number and Brightness (N&B) analysis; moment analysis of confocal frame scans (100 frames, 256 x 256 pixels) of live HeLa cells expressing the fluorescent fusion protein; brightness calibrated against free GFP, YFP or mCherry; cells unstimulated or stimulated with 10 nM oncostatin M (15-60 min), or treated with trichostatin A or actinomycin D
[2] = target: STAT3-YF-GFP (UniProt P40763); assay: pair correlation of molecular brightness (pCOMB); pair correlation of brightness fluctuations along a 64-pixel confocal line scan from cytoplasm to nucleus of live HeLa cells; amplitude calibrated against free GFP, YFP or mCherry; cells stimulated with 10 nM oncostatin M for 15 min
[3] = target: STAT3-mCherry (UniProt P40763); assay: Number and Brightness (N&B) analysis; moment analysis of confocal frame scans (100 frames, 256 x 256 pixels) of live HeLa cells expressing the fluorescent fusion protein; brightness calibrated against free GFP, YFP or mCherry; cells unstimulated or stimulated with 10 nM oncostatin M (15-60 min), or treated with trichostatin A or actinomycin D
[4] = target: STAT3-mCherry (UniProt P40763); assay: pair correlation of molecular brightness (pCOMB); pair correlation of brightness fluctuations along a 64-pixel confocal line scan from cytoplasm to nucleus of live HeLa cells; amplitude calibrated against free GFP, YFP or mCherry; cells stimulated with 10 nM oncostatin M for 15 min

stoichiometry N [1]: 2 and 4
Substance: STAT3-GFP (a stretch of the chain, sequence left out) (natural protein; other documents disagree on this pair)

stoichiometry N [2]: 2
Substance: STAT3-YF-GFP (a stretch of the chain, sequence left out) (natural protein; other documents disagree on this pair)

stoichiometry N [3]: 2 and 4
stoichiometry N [4]: 2 and 4
Substance: STAT3-mCherry (a stretch of the chain, sequence left out) (natural protein; other documents disagree on this pair)
